# This is one part of the list.
# Experiments:
# Assay in all cases: glycan array binding signal (z-score within array); higher = stronger binding
# Conditions in all cases: glycan notation: IUPAC condensed, linker removed
# [1] = biological target: Gal(b1-4)GlcNAc(b1-3)Gal(b1-4)GlcNAc(b1-3)Gal(b1-4)GlcNAc
# In short: (§1)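 From the Consortium for Functional Glycomics database, 3228 arrays were curated, keeping only those whose protein sequence was available. Binding is given as a within-array Z-score averaged across arrays sharing a protein sequence and across linkers. Negative Z-scores can be read as non-binding.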
# [2] = biological target: Gal(b1-4)GlcNAc(b1-3)Gal(b1-4)[Fuc(a1-3)]GlcNAc(b1-3)Gal(b1-4)[Fuc(a1-3)]GlcNAc
# In short: as §1
# [3] = biological target: Gal(b1-4)GlcNAc(b1-3)GalNAc
# In short: as §1
# [4] = biological target: Gal(b1-4)GlcNAc(b1-3)[Gal(b1-4)GlcNAc(b1-6)]Gal(b1-4)GlcNAc
# In short: as §1
# [5] = biological target: Gal(b1-4)GlcNAc(b1-3)[GlcNAc(b1-6)]Gal(b1-4)GlcNAc
# In short: as §1
# [6] = biological target: Gal(b1-4)GlcNAc(b1-6)Gal(b1-4)GlcNAc
# In short: as §1
# [7] = biological target: Gal(b1-4)GlcNAc(b1-6)Gal(b1-4)GlcNAc(b1-6)GalNAc
# In short: as §1
# [8] = biological target: Gal(b1-4)GlcNAc(b1-6)GalNAc
# In short: as §1
# [9] = biological target: Gal(b1-4)GlcNAc(b1-6)[Gal(b1-3)]GalNAc
# In short: as §1
# Gal3S(b1-3)GalNAc = biological target: Gal3S(b1-3)GalNAc
# In short: as §1
# Gal3S(b1-3)GlcNAc = biological target: Gal3S(b1-3)GlcNAc
# In short: as §1
# [10] = biological target: Gal3S(b1-3)[Fuc(a1-4)]GlcNAc
# In short: as §1
# Gal3S(b1-4)Glc = biological target: Gal3S(b1-4)Glc
# In short: as §1
# Gal3S(b1-4)Glc6S = biological target: Gal3S(b1-4)Glc6S
# In short: as §1
# Gal3S(b1-4)GlcNAc = biological target: Gal3S(b1-4)GlcNAc
# In short: as §1
# Gal3S(b1-4)GlcNAc6S = biological target: Gal3S(b1-4)GlcNAc6S
# In short: as §1
# [11] = biological target: Gal3S(b1-4)[Fuc(a1-3)]Glc
# In short: as §1
# Gal3S4S(b1-4)GlcNAc = biological target: Gal3S4S(b1-4)GlcNAc
# In short: as §1
# Gal3S6S(b1-4)GlcNAc = biological target: Gal3S6S(b1-4)GlcNAc
# In short: as §1
# Gal3S6S(b1-4)GlcNAc6S = biological target: Gal3S6S(b1-4)GlcNAc6S
# In short: as §1
# Gal4S(b1-4)GlcNAc = biological target: Gal4S(b1-4)GlcNAc
# In short: as §1
# Gal4S6S(b1-4)GlcNAc = biological target: Gal4S6S(b1-4)GlcNAc
# In short: as §1
# Gal6S(b1-4)Glc = biological target: Gal6S(b1-4)Glc
# In short: as §1
# Gal6S(b1-4)Glc6S = biological target: Gal6S(b1-4)Glc6S
# In short: as §1
# Gal6S(b1-4)GlcNAc = biological target: Gal6S(b1-4)GlcNAc
# In short: as §1
# Gal6S(b1-4)GlcNAc6S = biological target: Gal6S(b1-4)GlcNAc6S
# In short: as §1
# GalNAc(a1-3)Gal = biological target: GalNAc(a1-3)Gal
# In short: as §1
# GalNAc(a1-3)GalNAc = biological target: GalNAc(a1-3)GalNAc
# In short: as §1
# GalNAc(b1-3)Gal = biological target: GalNAc(b1-3)Gal
# In short: as §1
# [12] = biological target: GalNAc(b1-3)Gal(a1-4)Gal(b1-4)GlcNAc
# In short: as §1
# GalNAc(b1-3)GalNAc = biological target: GalNAc(b1-3)GalNAc
# In short: as §1
# GalNAc(b1-4)GlcNAc = biological target: GalNAc(b1-4)GlcNAc
# In short: as §1
# Glc(a1-4)Glc = biological target: Glc(a1-4)Glc
# In short: as §1
# Glc(a1-6)Glc(a1-6)Glc = biological target: Glc(a1-6)Glc(a1-6)Glc
# In short: as §1
# Glc(b1-4)Glc = biological target: Glc(b1-4)Glc
# In short: as §1
# Glc(b1-6)Glc = biological target: Glc(b1-6)Glc
# In short: as §1
# GlcA(b1-3)Gal = biological target: GlcA(b1-3)Gal
# In short: as §1
binder,measurement,setting,value
Surfactant Protein D (rat); Neck + Carbohydrate Recognition Domain (NCRD) (Rattus norvegicus) (protein) MLLFLLSALVLLTQPLGYLEAEMKTYSHRTMPSACTLVMCSSVESGLPGRDGRDGREGPRGEKGDPGLPGAAGQAGMPGQAGPVGPKGDNGSVGEPGPKGDTGPSGPPGPPGVPGPAGREGALGKQGNIGPQGKPGPKGEAGPKGEVGAPGMQGSAGARGAGPKGERGVPGERGVPGNTGAAGSAGAMGPQGSPGARGPPGLKGDKGIPGDKGAKGESGLPDVASLRQQVEALQGQVQHLQAAFSQYKKVELFPNGQSVGEKIFKTAGFVKPFTEAQLLCTQAGGQLASPRSAAENAALQQLVVAKNEAAFLSMTDSKTEGKFTYPTGESLVYSNWAPGEPNDDGGSEDCVEIFTNGKWNDRACGEKRLVVCEF,glycan array binding signal (z-score),[1],-0.187
same,glycan array binding signal (z-score),[2],-0.196
same,glycan array binding signal (z-score),[3],-0.199
same,glycan array binding signal (z-score),[4],-0.165
same,glycan array binding signal (z-score),[5],-0.149
same,glycan array binding signal (z-score),[6],-0.238
same,glycan array binding signal (z-score),[7],-0.183
same,glycan array binding signal (z-score),[8],-0.202
same,glycan array binding signal (z-score),[9],-0.232
same,glycan array binding signal (z-score),Gal3S(b1-3)GalNAc,0.086
same,glycan array binding signal (z-score),Gal3S(b1-3)GlcNAc,0.062
same,glycan array binding signal (z-score),[10],0.133
same,glycan array binding signal (z-score),Gal3S(b1-4)Glc,-0.229
same,glycan array binding signal (z-score),Gal3S(b1-4)Glc6S,0.086
same,glycan array binding signal (z-score),Gal3S(b1-4)GlcNAc,-0.109
same,glycan array binding signal (z-score),Gal3S(b1-4)GlcNAc6S,0.012
same,glycan array binding signal (z-score),[11],-0.007
same,glycan array binding signal (z-score),Gal3S4S(b1-4)GlcNAc,-0.238
same,glycan array binding signal (z-score),Gal3S6S(b1-4)GlcNAc,0.163
same,glycan array binding signal (z-score),Gal3S6S(b1-4)GlcNAc6S,0.116
same,glycan array binding signal (z-score),Gal4S(b1-4)GlcNAc,-0.243
same,glycan array binding signal (z-score),Gal4S6S(b1-4)GlcNAc,-0.173
same,glycan array binding signal (z-score),Gal6S(b1-4)Glc,0.065
same,glycan array binding signal (z-score),Gal6S(b1-4)Glc6S,0.373
same,glycan array binding signal (z-score),Gal6S(b1-4)GlcNAc,0.143
same,glycan array binding signal (z-score),Gal6S(b1-4)GlcNAc6S,-0.005
same,glycan array binding signal (z-score),GalNAc(a1-3)Gal,-0.233
same,glycan array binding signal (z-score),GalNAc(a1-3)GalNAc,-0.169
same,glycan array binding signal (z-score),GalNAc(b1-3)Gal,-0.184
same,glycan array binding signal (z-score),[12],-0.079
same,glycan array binding signal (z-score),GalNAc(b1-3)GalNAc,-0.139
same,glycan array binding signal (z-score),GalNAc(b1-4)GlcNAc,-0.139
same,glycan array binding signal (z-score),Glc(a1-4)Glc,0.171
same,glycan array binding signal (z-score),Glc(a1-6)Glc(a1-6)Glc,0.257
same,glycan array binding signal (z-score),Glc(b1-4)Glc,-0.247
same,glycan array binding signal (z-score),Glc(b1-6)Glc,0.041
same,glycan array binding signal (z-score),GlcA(b1-3)Gal,-0.065

# — the supplement of paper PMC8728848
